In all, about 81,000 sequences were measured (“one-hybrid fitness for binding parS DNA”: median about -0.17, highest 2% from about 0.51 on). This is one part of the list.
B1: Caulobacter ParB omega fusion; a variant is named by its letters at X, in order, B8GW30 (parent)
chain: MESVVVGEPGMSEGRRGLGRGLSALLGEVDAAPAQAPGEQLGGSREAPIEILQRNPDQPRRTFREEDLEDLSNSIREKGVLQPILVRPSPDTAGEYQIVAGERAWRAAQRAGLKTVPIMVRELDDLAVLEIGIIENVQRADLNVLEEALSYKVLMEKFERTQENIAQTIGKSXSHVANXMRLLXLPDEVQSYLVSGELTAXHARAIAAAADPVALAKQIIEGGLSVRETEALARKAPNLSAGKSKGGRPPRVKDTDTQALESDLSSVLGLDVSIDHRGSTGTLTITYATLEQLDDLCNRLTRGI

Variants of: B1
Assay: one-hybrid fitness for binding parS DNA (scaled: cognate 1, non-cognate 0); higher = stronger binding
Conditions: with parS DNA site
How it was run: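 Bacterial one-hybrid selection in E. coli USO rpoZ- hisB- pyrF- with a HIS3 reporter carrying the site 19 bp from the promoter, screening Caulobacter ParB libraries with four specificity codons randomised (NNS). Cells grew 48 hours at 37°C on M9-minus-histidine plus 0.1 mM IPTG and 5 mM 3-AT. Plasmids before and after selection were Illumina-sequenced, three replicate libraries pooled, and variants under 10 reads dropped. Fitness is the log change in variant-to-wild-type read ratio, rescaled to cognate 1, non-cognate 0.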

Variant	one-hybrid fitness for binding parS DNA
RWWE	≤ 0.2
TELM	≤ 0.2
RITM	0.319
QMTD	≤ 0.2
CEYS	≤ 0.2
NVQS	≤ 0.2
PFFA	≤ 0.2
TGAV	≤ 0.2
ESML	≤ 0.2
WHCR	≤ 0.2
SGTY	≤ 0.2
GHAH	≤ 0.2
VQNG	≤ 0.2
LAIS	≤ 0.2
RPTC	≤ 0.2
PLVR	≤ 0.2
TIHG	≤ 0.2
APVD	≤ 0.2
QLHT	≤ 0.2
TTIY	≤ 0.2
NKKR	≤ 0.2
AECI	≤ 0.2
VAFS	≤ 0.2
GTEC	≤ 0.2
NMGQ	≤ 0.2
PWNI	≤ 0.2

Variant	one-hybrid fitness for binding parS DNA
RSLA	0.591
HTGQ	≤ 0.2
ITRT	≤ 0.2
TTCL	≤ 0.2
WATL	≤ 0.2
VMST	≤ 0.2
ETPA	≤ 0.2
PVPF	≤ 0.2
VNET	≤ 0.2
QNNA	≤ 0.2
LNHT	≤ 0.2
SKNM	≤ 0.2
TFLY	0.258
RAEE	≤ 0.2
RNML	≤ 0.2
QCSY	≤ 0.2
PSWH	≤ 0.2
GVLL	≤ 0.2
CNHR	≤ 0.2
PQDF	≤ 0.2
SHPR	≤ 0.2
PEIT	≤ 0.2
GSMT	≤ 0.2
CAGL	≤ 0.2
IMTI	≤ 0.2
PFNR	≤ 0.2

Variant	one-hybrid fitness for binding parS DNA
TKVT	≤ 0.2
YFLI	≤ 0.2
MTTV	≤ 0.2
RRCI	≤ 0.2
AEFV	≤ 0.2
ATSG	≤ 0.2
HGFG	≤ 0.2
PHKS	≤ 0.2
DATR	≤ 0.2
ADAS	≤ 0.2
SGPV	≤ 0.2
QEVF	≤ 0.2
PKIK	≤ 0.2
LMLS	≤ 0.2
NSYC	≤ 0.2
DTGA	≤ 0.2
HKAN	≤ 0.2
VGPV	≤ 0.2
KRHF	≤ 0.2
QKSH	≤ 0.2
QHRG	≤ 0.2
LTSS	≤ 0.2
REGS	≤ 0.2
QAFY	≤ 0.2
SIPS	≤ 0.2
CMVS	≤ 0.2

Variant	one-hybrid fitness for binding parS DNA
ESSH	≤ 0.2
ATPV	≤ 0.2
QKSA	≤ 0.2
QCIN	≤ 0.2
DLDN	≤ 0.2
CRIF	≤ 0.2
HAHY	≤ 0.2
TSMT	≤ 0.2
VFRS	≤ 0.2
ASNK	≤ 0.2
KNRA	≤ 0.2
RMDV	≤ 0.2
PTQR	≤ 0.2
LTGG	≤ 0.2
DLLL	≤ 0.2
SGHG	≤ 0.2
QAVP	≤ 0.2
VNLP	≤ 0.2
FLKR	≤ 0.2
KACS	≤ 0.2
RCVA	0.581
QRHR	≤ 0.2
PAGS	≤ 0.2
WGFL	≤ 0.2
NFMA	≤ 0.2
LCTG	≤ 0.2

Variant	one-hybrid fitness for binding parS DNA
MMQY	≤ 0.2
ERNE	≤ 0.2
YVAF	≤ 0.2
KQVG	≤ 0.2
AGLG	≤ 0.2
IYPG	≤ 0.2
SWPD	≤ 0.2
EKNI	≤ 0.2
ESYW	≤ 0.2
YAYY	≤ 0.2
PVKT	≤ 0.2
SMWS	≤ 0.2
RKTH	≤ 0.2
IPVQ	≤ 0.2
QGLH	≤ 0.2
KWNG	≤ 0.2
SPPG	≤ 0.2
RAWE	≤ 0.2
VQRT	≤ 0.2
LMHS	≤ 0.2
YGSE	≤ 0.2
RWVY	≤ 0.2
HKSW	≤ 0.2
KECK	≤ 0.2
GILA	≤ 0.2
TMEV	≤ 0.2

Variant	one-hybrid fitness for binding parS DNA
KGQG	≤ 0.2
GLTM	≤ 0.2
IPQR	≤ 0.2
LTEA	≤ 0.2
NVPD	≤ 0.2
ESLS	≤ 0.2
TENQ	≤ 0.2
PTRY	≤ 0.2
NRFR	≤ 0.2
TGHV	≤ 0.2
VEHM	≤ 0.2
EYWT	≤ 0.2
RGLI	≤ 0.2
YKSG	≤ 0.2
GSPH	≤ 0.2
YMYN	≤ 0.2
NRSA	≤ 0.2
QWNK	≤ 0.2
QSSY	≤ 0.2
DKLC	≤ 0.2
WGPS	≤ 0.2
CWRC	≤ 0.2
RMWK	≤ 0.2
LMWG	≤ 0.2
SHDR	≤ 0.2
NDDD	≤ 0.2

Variant	one-hybrid fitness for binding parS DNA
KPNF	0.212
LALT	≤ 0.2
FHAA	≤ 0.2
HKTI	≤ 0.2
YISG	≤ 0.2
GPLH	≤ 0.2
HAPW	≤ 0.2
WSLG	≤ 0.2
RVQY	0.466
QGNC	≤ 0.2
QSNK	≤ 0.2
QDVS	≤ 0.2
ATQA	≤ 0.2
ELSL	≤ 0.2
KAYL	≤ 0.2
SLMR	≤ 0.2
TPLH	≤ 0.2
QVYR	≤ 0.2
KKQT	≤ 0.2
LANL	≤ 0.2
QGYI	≤ 0.2
LLQV	≤ 0.2
PHHE	≤ 0.2
IKRF	≤ 0.2
DVPY	≤ 0.2
MPPR	≤ 0.2

Variant	one-hybrid fitness for binding parS DNA
SLHK	≤ 0.2
GTPK	≤ 0.2
PDLF	≤ 0.2
TGRC	≤ 0.2
AQVC	≤ 0.2
HGSK	≤ 0.2
MVRR	≤ 0.2
VLTA	≤ 0.2
AQLW	≤ 0.2
YMWY	≤ 0.2
LQWQ	≤ 0.2
EALE	≤ 0.2
WNKI	≤ 0.2
LWLW	≤ 0.2
VVIS	≤ 0.2
YSDC	≤ 0.2
KSNI	≤ 0.2
VDVS	≤ 0.2
PHYV	≤ 0.2
SGTK	≤ 0.2
ARDF	≤ 0.2
SKYI	≤ 0.2
QLIH	≤ 0.2
ALRS	≤ 0.2
MMWA	≤ 0.2
QDIG	≤ 0.2

Variant	one-hybrid fitness for binding parS DNA
MKLF	≤ 0.2
LAWV	≤ 0.2
FPAR	≤ 0.2
VYRC	≤ 0.2
MMRG	≤ 0.2
QQVH	≤ 0.2
YENC	≤ 0.2
TASI	≤ 0.2
YWAT	≤ 0.2
REDH	≤ 0.2
IVQC	≤ 0.2
GVVP	≤ 0.2
FYAW	≤ 0.2
QCFI	≤ 0.2
STYM	≤ 0.2
AGVG	≤ 0.2
CPGS	≤ 0.2
RWFK	≤ 0.2
PTEC	≤ 0.2
PVMR	≤ 0.2
NPIR	≤ 0.2
VWWS	≤ 0.2
NETC	≤ 0.2
VHMC	≤ 0.2
RNIK	≤ 0.2
DDQT	≤ 0.2

Variant	one-hybrid fitness for binding parS DNA
SGGA	≤ 0.2
PVWR	≤ 0.2
AKVS	≤ 0.2
YPHL	≤ 0.2
EWRS	≤ 0.2
CAFG	≤ 0.2
AGAL	≤ 0.2
PQKR	≤ 0.2
VWLS	≤ 0.2
VDEL	0.3
WLHT	≤ 0.2
NIMR	≤ 0.2
LLMC	≤ 0.2
HPCP	≤ 0.2
SMKF	≤ 0.2
NIRG	≤ 0.2
WCTG	≤ 0.2
SQKY	≤ 0.2
NMLS	≤ 0.2
IIDV	≤ 0.2
LMAG	≤ 0.2
DLLC	≤ 0.2
KYKY	≤ 0.2
ACCE	≤ 0.2
CRGS	≤ 0.2
HMPR	≤ 0.2

Variant	one-hybrid fitness for binding parS DNA
CDAR	≤ 0.2
YAQC	≤ 0.2
QFKG	≤ 0.2
KRIF	≤ 0.2
DPSC	≤ 0.2
GSTT	≤ 0.2
SMDY	≤ 0.2
KQCS	≤ 0.2
EGSH	≤ 0.2
GAYY	≤ 0.2
EDEL	≤ 0.2
FLQT	≤ 0.2
RHII	≤ 0.2
ANYW	≤ 0.2
QHRT	≤ 0.2
AAHT	≤ 0.2
WSTE	≤ 0.2
ALLM	≤ 0.2
CTNM	≤ 0.2
IGET	≤ 0.2
RFYQ	≤ 0.2
SEDC	≤ 0.2
DRDG	≤ 0.2
HCDP	≤ 0.2
KPQG	≤ 0.2
RQHD	≤ 0.2

Variant	one-hybrid fitness for binding parS DNA
NSTY	≤ 0.2
CAIR	≤ 0.2
YTNK	≤ 0.2
TNII	≤ 0.2
CPLL	≤ 0.2
RWNE	≤ 0.2
RFPH	≤ 0.2
QKMG	≤ 0.2
NDVN	≤ 0.2
TPPH	≤ 0.2
KTSL	≤ 0.2
QCHP	≤ 0.2
IDKA	≤ 0.2
MMQS	≤ 0.2
SPNM	≤ 0.2

From a collection of fitness landscapes (doi:10.1016/j.celrep.2020.107928)
